From PubChem BioAssay AID1956 (SRMLSC, 2009)
The other results are listed elsewhere or left out. Shown are side measurements of this screen, not its main read-out; they come without a call.

test: compounds boosting herpes simplex virus growth – fold increase, host cell viability (AID 1956); conditions: HSV replication augmentation in cells; fold increase: measured here: primary screen fold increase 10 uM, at 10 µM, stronger effect = higher value; viability: measured here: host cell viability series, at 25 µM, stronger effect = lower value; also: tested in PC3 cells

SMILES | fold increase | viability [%]
N/C(CSc1ccccn1)=N\OCc1c(Cl)cccc1Cl | 1.49 | 105
Cc1ccc(-n2cccc2/C=C2/C(=N)N3C(=NC2=O)SN=C3S(C)(=O)=O)cc1Cl | 1.56 | 94
CCN1/C(=C\c2ccc3ccccc3[n+]2CC)Sc2cc(C)ccc21 | 5.57 | 14.1
O=C(O)c1ccc(N=Nc2c(O)[nH]c3cc(Cl)ccc23)cc1 | 4.66 | 99.9
O=C(Nc1ccc(N2CCCC2)cc1)C(c1ccccc1)c1ccccc1 | 1.35 | –
CC(C)NC(=O)CC(=O)NN=C1CCCCC1 | 1.38 | 99.8
COc1cc(C(=O)NCCCN2CCCC2=O)cc(OC)c1OC | 1.45 | 94.9
Cc1cc(C)n2[nH]c(=O)c(N=Nc3cccc(Cl)c3)c2n1 | 1.27 | –
Cc1ccc(CC(=O)Nc2ncc([N+](=O)[O-])s2)cc1 | 1.57 | 92.8
CCOc1ccc(C2C=C(c3ccccc3)Nc3nnnn32)cc1 (stereo not given) | 1.47 | 100
O=c1cc(-c2ccccc2)[nH]n1-c1nc2ccccc2[nH]1 | 1.32 | –
CC1CCN(C(=S)c2cn(Cc3ccccc3F)c3ccccc23)CC1 | 1.16 | –
COCCCNc1c2c3c(cccc3[nH]c1=O)C(=O)c1ccccc1-2 | 5.06 | 53.2
CC1CCc2c(sc(Nc3nc4c(F)cccc4s3)c2C(N)=O)C1 (stereo not given) | 4.08 | 84.6
CC1=NN(c2ccccc2)C(=O)/C1=C\C=C1/N(C)c2ccccc2C1(C)C | 1.26 | –
Clc1nc(-c2ccccc2)cc(-c2ccccc2)n1 | 1.46 | 95.6
CCOc1cc(/C=C2\CCC/C(=C\c3cc(Cl)c(O)c(OCC)c3)C2=O)cc(Cl)c1O | 1.91 | 32
Cc1coc(NC(=O)CSc2nc(-c3ccncc3)cc(C(F)(F)F)c2C#N)n1 | 1.71 | 90.3
CC(NC(=O)/C(C#N)=C1\N=C(NC(=O)c2cccs2)c2ccccc21)c1ccccc1 (stereo not given) | 1.42 | –
COc1cc(/C=C2/SC(=NCc3ccccc3)N(Cc3ccccc3)C2=O)ccc1O | 1.65 | 97.3
COc1cc(/C=C2\C(C)=C(C#N)c3nc(N)c(C#N)c(C)c32)ccc1OCC(=O)O | 1.36 | 93.5
Cc1ccc(C(=O)NC(=S)/C=C2\N(C)c3ccccc3C2(C)C)cc1 | 2.86 | –
CCCn1c(N)c(C(=O)CSc2nc3ccccc3n2CCC#N)c(=O)n(C)c1=O | 1.24 | –
O=C(/C=C/c1ccccc1)c1cc(Br)ccc(=O)c1O | 1.51 | –

SMILES | fold increase | viability [%]
O=C(NC1CCCCC1)C(c1cccs1)N(C(=O)c1ccco1)c1ccc2c(c1)OCCO2 (stereo not given) | 1.25 | –
Oc1ccc(/C=N/N=C(c2ccccc2)c2ccccc2)c(O)c1O | 2.03 | 98.1
COc1ccc(C2c3ccc(O)cc3Oc3ncn(Cc4ccco4)c(=N)c32)cc1 (stereo not given) | 1.35 | 93.2
Cc1nn(-c2ccccc2)c2[nH]c(=O)c(CNc3ccc(N4CCOCC4)cc3)cc12 | 1.28 | –
COC(=O)c1ccc[n+](CCc2c[nH]c3ccccc23)c1 | 1.98 | 90.7
O=C1Nc2ccccc2Oc2cc([N+](=O)[O-])cc(Oc3ccccc3)c21 | 1.68 | 76.8
CCOC(=O)c1cn2nc(Oc3ccccc3)ccc2n1 | 1.38 | 105
O=C(O)c1ccccc1C(=O)Nc1ccc(-n2ccc(C(F)(F)F)n2)cc1 | 1.37 | 103
CCOc1[nH]n(-c2ccc(Cl)cc2)c(=O)c1C=Nc1ccc(OC)cc1 | 1.32 | –
O=[N+]([O-])c1ccc(Sc2cccc[n+]2[O-])c2nonc12 | 4.26 | –
O=C(N=c1ccn(-c2nc3ccccc3nc2NS(=O)(=O)c2ccc(Cl)cc2)cc1)c1ccccc1Cl | 1.41 | 103
COc1cc(/C=C2\SC(=S)N(c3cccnc3)C2=O)ccc1O | 7.21 | 92.3
COC(=O)c1c(C)[nH]c(O)c1C=Nc1ccc(Oc2ccccc2)cc1 | 1.68 | –
COc1ccc(S(=O)(=O)c2c(N)n(Cc3ccco3)c3nc4ccccc4nc23)cc1 | 2.32 | 90
CN(Cc1ccon1)Cc1cn(C)nc1-c1ccc2c(c1)OCCO2 | 1.41 | 92
COc1ccc2nc(N3CCCCC3)c(/C=C3\SC(=S)NC3=O)cc2c1 | 1.53 | –
Cc1ccc(CC2S/C(=C(/C#N)C(=O)NCc3ccco3)N(c3ccccc3)C2=O)cc1 (stereo not given) | 1.42 | 92.4
CSc1cccc(NC(N)=S)c1 | 1.36 | 89.3
COc1cc(/C=C(\C#N)C(=O)NCCc2ccccc2)cc(OC)c1O | 2.73 | 95.6
COC(=O)N/N=C/c1cccc(OC(=O)c2ccc3c(c2)OCO3)c1 | 2.07 | 101
CCc1ccc(OCCNC(=O)c2ccc(S(=O)(=O)N(C)C)cc2)cc1 | 1.49 | 97
O=C(O)Cc1sc(N/N=C\c2ccccc2)nc1-c1ccccc1 | 1.49 | 101
CC1=CSC2=NC(C(F)(F)F)(C(F)(F)F)NC(=O)N12 | 1.32 | –
CCOc1cc(Br)c(/C=C2/C(=O)N(C)C(=S)N2CC(=O)OC)cc1OC | 1.75 | 87.8

SMILES | fold increase | viability [%]
CC1=Nc2ccccc2/C1=C/c1sc(=N)n(-c2nccs2)c1O | 2.84 | 67.6
Cc1cc(C)nc(N/N=C/c2cn[nH]c2-c2ccccc2)n1 | 1.34 | 96.5
CCOC(=O)c1sc2nc(CC(=O)OC)nc(NCc3ccco3)c2c1C | 2.03 | 90.3
Cc1ccc(-n2c(SCC(=O)Nc3ccc4c(c3)OCO4)nnc2-c2cccs2)cc1 | 1.02 | –
Fc1cccc(-n2c(-c3ccco3)nc3nc4ccccc4nc32)c1 | 2.26 | 100
CC(C)OC(=O)CC(=O)c1sc2nc3c(cc2c1N)CN(C)CC3 | 1.74 | 90.7
CCOc1c(CNCCN2CCOCC2)cccc1OC | 1.32 | –
CCOc1ccc(CN2CCN(Cc3nc(C(C)C)cs3)CC2CCO)cc1 (stereo not given) | 1.34 | 93.4
CC1=CC2=NC(=O)/C(=C/c3coc4ccc(Cl)cc4c3=O)C(=N)N2O1 | 1.99 | 97.2
CNC(=S)NNC(=O)c1ccc(=O)n(Cc2ccc(Cl)cc2Cl)c1 | 1.45 | 76.5
Cn1c(=O)c(C(=O)CN2CCCCCC2)c(N)n(Cc2ccccc2)c1=O | 1.58 | 92.3
Fc1ccc(Br)cc1C1C=C(c2ccc(Br)s2)Nc2ncnn21 (stereo not given) | 1.95 | –
COc1ccc(S(=O)(=O)N2CN(CCc3ccc(OC)c(OC)c3)c3nc4ccccc4nc32)cc1 | 1.34 | 95.9
Brc1ccc(C2=CC(c3ccco3)n3ncnc3N2)cc1 (stereo not given) | 1.69 | –
O=C(CSc1nnc(-c2cccnc2)n1C1CCCCC1)NC1CCCC1 | 1.35 | 100
O=C(Cc1nc2ccccc2[nH]c1=O)c1ccc(Cl)cc1 | 2.33 | 90.7
O=C1CC(N2CCN(Cc3ccccc3)CC2)C(=O)N1CCc1ccccc1 (stereo not given) | 1.36 | 93.8
COC(=O)C(C(C)=O)C1=C/C(=N\S(=O)(=O)c2ccc(C)cc2)c2ccccc2C1=O (stereo not given) | 1.99 | 89.7
O=C1c2cccc3c(N4CCCCC4)ccc(c23)C(=O)N1CCO | 3.27 | 81.8
Clc1ccc(C2=CC(c3ccco3)n3ncnc3N2)cc1 (stereo not given) | 1.07 | 92.5
O=C(C1=NN(c2ccccc2)C2C(=O)N(c3ccccc3Cl)C(=O)C12)c1ccccc1 (stereo not given) | 5.23 | 95.1
O=C(Nc1ccc(F)cc1)N1CCn2c(nc3ccccc32)C1 | 1.37 | 92
N#CC(C#N)=C1C=CC=CN1/C(=C\c1ccccc1)C(=O)c1cccs1 | 1.38 | 92.8
N#C/C(=C\c1ccccc1[N+](=O)[O-])C(=O)NC1CCCCC1 | 1.52 | 64.7

SMILES | fold increase | viability [%]
Cc1nnc(SCc2cc([N+](=O)[O-])cc3c2OCOC3)n(N)c1=O | 1.34 | 84.7
CC1(C)CC(=O)C(C=Nc2cc(C(=O)c3ccccc3)ccc2N)=C(O)C1 | 2.06 | 89.9
Cn1/c(=N/N=C/c2ccc([N+](=O)[O-])cc2)sc2ccccc21 | 1.43 | –
O=C1c2cccc3c([N+](=O)[O-])ccc(c23)C(=O)N1CCc1ccccn1 | 3.76 | 52.8
CN1CC=C2C(C#N)=C(N)C(C#N)(C#N)C(c3ccsc3)C2C1 (stereo not given) | 1.46 | 86.9
Cc1ccc(-c2cc(C(=O)N/N=C/c3c(C)nn(C)c3C)c3ccccc3n2)cc1C | 1.23 | –
COc1cccc2c1C(=O)c1c(O)c3c(c(O)c1C2=O)C[C@@](O)(C(=O)CO)C[C@@H]3O[C@H]1C[C@H](N)[C@@H](O)[C@H](C)O1 | 3.18 | 34
CC1SCC(NC(=O)c2ccccc2Cl)CS1 (stereo not given) | 1.37 | 102
CCCCOC(=S)NC(=O)c1sc2ccccc2c1Cl | 1.47 | 99.9
COc1cccc(N2C(=O)C3NN=C(C(=O)CN4C(=O)c5ccccc5C4=O)C3C2=O)c1 (stereo not given) | 1.33 | 99.1
COc1cc(C=C2C(=O)c3ccccc3C2=O)cc(OC)c1 | 1.71 | 104
COc1cccc(CNC(=O)CCC2CCCN(C(=O)C3=CC(=O)CC(C)(C)O3)C2)c1 (stereo not given) | 1.35 | 96
CN1CCN(CC(=O)Nc2c(C#N)cnn2-c2ccccc2)CC1 | 1.44 | 99
Cc1nc2ccc(Br)cn2c1NC(C)(C)C | 1.34 | 92.7
CC1CC1c1ccc(/C=C(\C#N)C(=O)Nc2cc(Cl)ccc2Cl)o1 (stereo not given) | 2.08 | 109
COc1ccc2c(c1)CC/C(=C\c1ccc(C)o1)C2=O | 1.34 | 98
CC(C)(C)c1ccc(S(=O)(=O)C(C)(C)C)cc1 | 1.4 | 90
COc1cc2c3nnc(-c4ccc(F)cc4)c-3cn(Cc3ccccc3F)c2cc1OC | 2.65 | –
Cc1[nH]n(-c2ccccc2)c(=O)c1N=Nc1ccccc1O | 1.72 | 8.46
O=C(O)c1cn(-c2ccc(N3CCCC3)c(F)c2)c2c(F)c(F)c(F)cc2c1=O | 1.39 | –
Cc1cc(Cl)ccc1OCC(=O)N1CCCCC1 | 1.08 | 105
CCOc1ccc2c(c1)C(c1ccc(C)cc1)=NNC(c1ccc(C)cc1)=N2 | 1.1 | –
COc1ccc(/C=C(/C(=O)c2cccs2)N2C=CC=CC2=C(C#N)C#N)cc1 | 1.89 | 95.6
